The values that follow come from US6478984B1, “Liquid for evaporative cooling apparatus” (Fortum Oyj, priority 1997, dated 2002).

Data set [1] in a line: Kinematic viscosity of the liquids at the concentration corresponding to a freezing point of −15° C. Particulars: concentration corresponding to freezing point −15° C. The class given is physicochemical.
In another data set the test system is rats. The conditions noted are these: oral; cited from earlier work.

Take `CCO` [Ethanol]: the Kinematic viscosity in data set [1] (0° C.) was 5.9 mm^2/s; in data set [1] (20° C.) it was 2.5 mm^2/s; in data set [1] (−10° C.) it was 10.9 mm^2/s; in data set [1] (−15° C.), 15.8 mm^2/s.
Turning to `C[N+](C)(C)CC(=O)O` [Trimethyl glycine, trimethyl glycine], the 50% lethal dose (LD50) (in general, the dose at which mortality reaches 50%) with rats was 11179 mg/kg.
In the case of `OCCO` [Ethylene glycol], the Kinematic viscosity in data set [1] (0° C.) was found to be 4.3 mm^2/s; in data set [1] (20° C.), 2.1 mm^2/s; in data set [1] (−10° C.), 6.5 mm^2/s; in data set [1] (−15° C.), 8.2 mm^2/s.
Take `CC(O)CO` (stereo not shown) [Propylene glycol]: the Kinematic viscosity is reported as 7.8 mm^2/s in data set [1] (0° C.), 3.3 mm^2/s in data set [1] (20° C.), 14.4 mm^2/s in data set [1] (−10° C.) and 20 mm^2/s in data set [1] (−15° C.).
